In PubChem BioAssay AID504832 (National Center for Advancing Translational Sciences (NCATS), 2011):
The campaign covered roughly 310,000 compounds. About 18,000 (5.8%) were called active. The shares of active, inactive and inconclusive entries below differ from those in the screen. Calls come from the whole dose curve; as a rule, active = well fitted inhibition curve with a large enough effect; inconclusive = small, poorly fitted or top-dose-only effect, or another doubt; inactive = no such curve, though single readings can be large or run the other way. No potency is given beside an inconclusive call; the fits are too rough.

Test: Primary qHTS for delayed death inhibitors of the malarial parasite plastid, 48 hour incubation
Conditions: P. falciparum luciferase growth in erythrocytes; series mostly up to 28.7 µM
Procedure, shortened: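 A one-generation exposure of luciferase-tagged malaria parasites in RPMI 1640/Albumax erythrocyte culture, 37 C and 5% CO2. Inhibition is inferred from decreased luminescence after adding detection reagent.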
Potency is the fitted concentration of half-maximal effect; tags give direction and shape of the fitted curve.

Row | SMILES | Potency
1 | Cc1cc(NC(=O)CCC(=O)N(c2ccccc2)C(C(=O)NC2CCCC2)c2ccccc2F)no1 (stereo not given) | inconclusive [inhibitor, partial curve]
2 | COc1ccc(-c2nnn(CC(=O)Nc3ccc4c(c3)OCCO4)n2)cc1OC | inconclusive [inhibitor, single point]
3 | Cc1ccc(N=C2NC(=O)/C(=C/c3cccnc3)S2)c(C)c1 | inconclusive [inhibitor, partial curve, poor fit]
4 | CCOc1ccc(N(Cc2cc3ccc(C)cc3[nH]c2=O)C(=O)COC)cc1 | inactive
5 | CC(C)(C)c1ccc(C(=O)NCC(=O)OCC(=O)c2ccc3c(c2)-c2ccccc2C3)cc1 | inactive
6 | CC(O)c1nc2ccccc2n1C1CCCCC1 (stereo not given) | inconclusive [inhibitor, single point]
7 | Cc1ccc(NC(c2ccccc2)c2nc3ccccc3[nH]c2=O)cc1 (stereo not given) | inconclusive [inhibitor, partial curve, poor fit]
8 | COc1ccccc1CC(NC(C)=O)C(=O)NC1CCN(C(=O)c2ccc([N+](=O)[O-])cc2)CC1 (stereo not given) | inactive
9 | Cc1ccc(-c2cc(-c3ccc(Cl)cc3)c(C#N)c(N)n2)o1 | inactive
10 | CC(C)CN(CC(C)C)S(=O)(=O)N1CCC(C(=O)NCc2ccccn2)CC1 | inconclusive [inhibitor, partial curve, poor fit]
11 | CC(C)(C)N(Cc1ccccc1)C(=O)COC(=O)CCN1C(=O)C2CC=CCC2C1=O (stereo not given) | inactive
12 | COc1ccc(-c2cc(C(=O)N(C)CC(=O)Nc3ccccc3Cl)c3ccccc3n2)cc1OC | active: 13.1 µM
13 | COc1ccc(S(=O)(=O)N2CCOCC2)cc1NC(=O)CO/N=C/c1ccccc1OC(F)F | inconclusive [inhibitor, full curve, poor fit]
14 | O=C(c1ccccc1)N1CCC(c2nc(-c3ccc(S(=O)(=O)N4CCOCC4)cc3)no2)CC1 | inconclusive [inhibitor, full curve, poor fit]
15 | Cc1ccc(NC(=S)N/C(=N/S(=O)(=O)c2ccccc2)c2ccccc2)cc1 | inactive
16 | CCC(NC(=O)Nc1nnc(C(F)(F)F)s1)(C(F)(F)F)C(F)(F)F | active: 1.65 µM
17 | COc1ccc(N2CCN(C(=O)Cc3cccs3)CC2)cc1 | inactive
18 | COc1cccc(/C=N/Nc2nc(Nc3ccc([N+](=O)[O-])cc3)nc(N3CCCC3)n2)c1O | inconclusive [inhibitor, full curve, poor fit]
19 | O=C(Nc1nnc(C2CC2)s1)c1cc(-c2ccccc2)nn1-c1ccccc1 | inconclusive [inhibitor, single point]
20 | CCOC(=O)N1CCN(C(=O)c2cn(CC(C)C)c(=O)c3c2c2ccccc2n3C)CC1 | active: 10.4 µM
21 | Nc1ccccc1C(=O)N(Cc1ccccc1)Cc1ccccc1 | inconclusive [inhibitor, single point]
22 | CCC(C)(C)NC(=O)CN(C(=O)CCC(=O)Nc1nccs1)c1ccc2c(c1)OCO2 | inactive
23 | O=C1c2ccccc2C(=O)c2c1ccc(O)c2O | inactive
24 | O=C(O)c1ccc(-c2sc(Nc3ccccc3)n[n+]2-c2ccc(F)cc2)cc1 | inactive

Row | SMILES | Potency
25 | C[N+](C)(C)C(Cc1ccccc1)C(=O)[O-] (stereo not given) | inactive
26 | Nc1nc(=S)c2[nH]cnc2[nH]1 | active: 8.28 µM
27 | O=C(c1ccco1)N1CCN(c2ncnc3sc4c(c23)CCC4)CC1 | inconclusive [inhibitor, single point]
28 | O=C(Nc1ccc(N2CCN(C(=O)c3cccs3)CC2)cc1)c1cccc(F)c1 | inconclusive [inhibitor, partial curve]
29 | Cn1c(=O)[nH]c(=O)c2c1nc(N1CCOCC1)n2CCN1CCOCC1 | active: 1.85 µM
30 | CCOC(=O)Nc1ccc2c(c1)N(C(=O)CN(CC)CC)c1ccccc1C=C2 | inconclusive [inhibitor, single point]
31 | O=C(NC1CCCCC1)c1cc(C2CC2)nn1-c1ccccc1 | inconclusive [inhibitor, partial curve]
32 | CCC1(c2ccc(C)cc2)NC(=O)N(CC(=O)Nc2cccc(S(=O)(=O)N3CCCC3)c2)C1=O (stereo not given) | inconclusive [inhibitor, single point]
33 | COC(=O)C1CCN(C(=O)Cc2c(OC)ccc3cc(Br)ccc23)CC1 | inconclusive [inhibitor, partial curve]
34 | Fc1ccccc1-c1nc(NCc2ccccc2)c2ccccc2n1 | inconclusive [inhibitor, partial curve]
35 | O=c1c2cc(O)c(O)cc2oc2cc(O)c(C3OC(CO)C(O)C(O)C3O)c(O)c12 (stereo not given) | inactive
36 | COc1ccc(-c2nc3ccc(C(=O)NCC(OC)OC)cc3nc2-c2ccc(OC)c(OC)c2)cc1OC | active: 4.15 µM
37 | CCOC(=O)C1CCN(C(=O)c2cccc(NS(=O)(=O)c3ccc(F)c(F)c3)c2)CC1 | inconclusive [inhibitor, single point]
38 | CCN1C(=O)[C@H]2[C@@H](c3ccc(-c4ccc(Cl)c(Cl)c4)cc3)N3CCCC[C@@]3(C(=O)OC)[C@H]2C1=O | inconclusive [inhibitor, single point]
39 | CCC(c1nnnn1Cc1ccc(F)cc1)N1CCN(C2CCCCC2)CC1 (stereo not given) | inconclusive [inhibitor, single point]
40 | CCc1nnc(NC(=O)CCC(=O)NC2CCCC2)s1 | inactive
41 | CCN(CC(=O)Nc1cccc(OC)c1)CC(=O)Nc1ccc(Br)c(C)c1 | inconclusive [inhibitor, partial curve, poor fit]
42 | Cc1ccc(C(=O)Nc2ccc(OCc3ccccc3)cc2)s1 | inconclusive [inhibitor, full curve]
43 | O=C(Cn1nc(-c2ccccc2)c2ccccc2c1=O)Nc1ccc(O)cc1 | inactive
44 | Cc1noc(C)c1CSc1nnnn1-c1ccc(Cl)cc1 | inconclusive [inhibitor, single point]
45 | COc1ccc(C(C(=O)NC2CCCCC2)N(C(=O)c2snc(C(N)=O)c2N)c2ccc(OC)cc2OC)cc1 (stereo not given) | inconclusive [inhibitor, partial curve]
46 | O=c1c2ccccc2nc(/C=C/c2ccccn2)n1-c1ccccc1 | inconclusive [inhibitor, partial curve]
47 | Cc1ccc(SCC(=O)NC(=O)Nc2ccc3c(c2)OCCO3)c(C)c1 | inactive
48 | CCOc1ccc(Nc2nc(-c3sc(N)nc3C)cs2)cc1 | inconclusive [inhibitor, single point]

Row | SMILES | Potency
49 | COC(=O)Cn1c(=NC(=O)CSC(C)=O)sc2ccccc21 | inactive
50 | COc1ccc(-c2nc3ccc(C(=O)NCC(OC)OC)cc3nc2-c2ccc(OC)cc2)cc1 | inconclusive [inhibitor, single point]
51 | COc1ccc(C(C(N)=O)c2ncc(C(F)(F)F)cc2Cl)cc1 (stereo not given) | inconclusive [inhibitor, full curve, poor fit]
52 | CCCn1ncc(CN2CCCC(C(=O)c3cccc(OC(C)C)c3)C2)c1C (stereo not given) | active: 13.1 µM
53 | O=C(Nc1cccc(C(F)(F)F)c1)c1csc(-c2ccncc2)n1 | inconclusive [inhibitor, single point]
54 | COc1ccc2[nH]c3c(c2c1)CCN1C(=O)N([C@@H](C)C(=O)NC2CCN(Cc4ccccc4)CC2)C(=O)[C@]31C | inconclusive [inhibitor, single point]
55 | CC(=O)N1CCN(c2ccc(NS(=O)(=O)c3ccc(C)cc3)cc2)CC1 | inactive
56 | CCCN(CC(=O)Nc1cc(Cl)ccc1Cl)C(=O)c1ccc2n[nH]nc2c1 | inconclusive [inhibitor, single point]
57 | Nc1ccccc1Nc1cc(-c2ccccc2)nn1-c1cccc(Cl)c1 | inconclusive [inhibitor, single point]
58 | O=C(Cc1nnc(NC(=O)c2ccccc2)s1)N/N=C/c1ccco1 | inactive
59 | CCn1cc(CN2CCC(C(=O)Nc3cccc(-c4cccc(Cl)c4)c3)CC2)c(C)n1 | inconclusive [inhibitor, single point]
60 | O=C(COc1ccccc1)OCC(=O)c1ccc(S(=O)(=O)N2CCCCC2)cc1 | inactive
61 | O=C(OCC(=O)N1CCc2ccccc2C1)c1cccc([N+](=O)[O-])c1 | inactive
62 | Cc1cccc(N=C2N=C(N)c3ccccc32)c1 | inactive
63 | O=C(C1CC(=O)N(c2ccc(F)cc2)C1)N1CCCCCC1 (stereo not given) | inactive
64 | COc1c(-c2ccc(O)cc2)oc2cc(O)cc(O)c2c1=O | inconclusive [inhibitor, full curve, poor fit]
65 | Cc1ccc(Sc2ncnc3onc(C)c23)c(C)c1 | inconclusive [inhibitor, single point]
66 | CCN(CC(=O)NCCc1ccccc1)S(=O)(=O)c1ccc(Br)cc1 | inconclusive [inhibitor, single point]
67 | Cc1cc(NC(=O)/C=C/c2cccc(Cl)c2)n(-c2nc3ccccc3[nH]2)n1 | inconclusive [inhibitor, single point]
68 | COCc1cc(=O)[nH]c(/N=C(\N)Nc2cccc(Cl)c2)n1 | inactive
69 | CNC(=O)/C(=C\c1ccco1)NC(=O)c1ccco1 | active: 9.28 µM
70 | COC(=O)c1ccc(C2NCCc3cc(OC)c(OC)cc32)cc1 (stereo not given) | inconclusive [inhibitor, single point]
